# Where “and” joins values, the source holds several entries; their conditions need not be identical. Identical values can stand only once. Screen size: about 350,000 compounds; about 260 (0.074%) were called active. The shares of active, inactive and inconclusive entries below differ from those in the screen. Calls come from the whole dose curve; as a rule, active = well fitted inhibition curve with a large enough effect; inconclusive = small, poorly fitted or top-dose-only effect; inactive = no such curve, though single readings can be large or run the other way. Where the call is inconclusive, the potency comes from a doubtful curve fit.
# Biological target: Ferritin light chain (Equus caballus) (UniProt P02791)
# UniProt P02791, sequence (P02791 whole entry, looked up): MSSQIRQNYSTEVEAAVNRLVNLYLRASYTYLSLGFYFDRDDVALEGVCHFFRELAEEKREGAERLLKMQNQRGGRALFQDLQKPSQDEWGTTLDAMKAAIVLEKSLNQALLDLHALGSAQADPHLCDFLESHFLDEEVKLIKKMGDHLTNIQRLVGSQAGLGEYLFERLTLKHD
# Test: qHTS Assay for Identification of Novel General Anesthetics; note: nearly all actives have a fitted effect of over 20% in size
# Settings: apoferritin/1-aminoanthracene competitive binding, fluorescence; activity change, negative = displacement: at 77.5 µM (top of the series)
# In short: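 Apoferritin-based anesthetic binding model; compound displacement of fluorescent 1-AMA measured as endpoint fluorescence after 10 minutes at room temperature, scaled to free-ligand and complex controls.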
# % is set by controls: 0 for no effect and ±100 for the full control effect; potency is the fitted concentration of half-maximal effect; tags give direction and shape of the fitted curve.
Structure (SMILES),Potency,"activity change, negative = displacement"
Cc1ccc(Cn2ncn3c(cc4ccccc43)c2=O)cc1,"inconclusive: 4.47 µM [inhibitor, full curve, poor fit]",–
CCn1c(SCC(=O)Nc2cc(C(C)(C)C)nn2-c2ccccc2)nnc1-c1cccs1,"inconclusive: 39.8 µM [inhibitor, single point]",–
Cc1cc(NC(=O)CSc2nc3cc(Cl)ccc3o2)no1,–,inactive: 6.02%
Cc1cc(C)cc(N=c2c([N+](=O)[O-])nn(-c3cccc(Cl)c3)n2O)c1,"inconclusive: 17.8 µM [inhibitor, partial curve]",–
O=c1c2cccc3c(N4CCOCC4)ccc(c32)c2nc3ccccc3n12,–,inactive: -21.6%
Clc1ccc(CSc2nncn3c2cc2occc23)cc1,"inconclusive: 39.8 µM [inhibitor, single point]",–
CC1CCCC(C)N1C(=O)CSc1nc2ccccc2s1 (stereo not drawn),"inconclusive: 28.2 µM [inhibitor, partial curve]",–
COc1ccc(C(=O)NCCSC2CCCCC2)cc1,–,inactive: -21.3%
CCCNC(=O)c1cccc(Br)c1,–,inactive: -5.33%
COc1cccc(/C=N/NC(=O)CNC(=O)COc2ccccc2)c1O,"inconclusive: 17.8 µM [inhibitor, partial curve]",–
CC1CCCC(NC(=O)CN2CCN(Cc3ccc(Cl)cc3)C2=O)C1C (stereo not drawn),"inconclusive: 56.2 µM [inhibitor, partial curve, poor fit]",–
Nc1c(Cl)ncnc1N/N=C/c1ccccn1,–,inactive: -8.31%
CCOC(=O)/C=c1\s/c(=C\c2ccc(C)cc2)c(=O)n1CC(=O)NCc1ccco1,–,inactive: -2.55%
Cc1ccc2nc(Nc3nc(-c4ccccc4)cc(=O)[nH]3)nc(C)c2c1,"inconclusive: 7.08 µM [inhibitor, partial curve]",–
COc1ccc(N2CCN(C(=O)c3cccc(Br)c3)CC2)c([N+](=O)[O-])c1,"inconclusive: 28.2 µM [inhibitor, partial curve]",–
O=C1N/C(=N/N=C/c2ccccc2)SC1(c1ccccc1)c1ccccc1,"inconclusive: 39.8 µM [inhibitor, single point]",–
CC(C)CCNC(=O)C(c1ccc(O)cc1)N(C(=O)C1COc2ccccc2O1)c1cccc(O)c1 (stereo not drawn),–,inactive: -18.3%
Cc1ccc(NC(NC(=O)c2cccs2)C(Cl)(Cl)Cl)cc1 (stereo not drawn),"inconclusive: 20 µM [inhibitor, partial curve]",–
COc1ccccc1NS(=O)(=O)N(C)C,"inconclusive: 25.1 µM [inhibitor, partial curve]",–
COc1cccc(CC(=O)Nc2c(C(=O)N3CCN(c4ccccc4F)CC3)oc3ccccc23)c1,"inconclusive: 39.8 µM [inhibitor, partial curve]",–
Cc1cc(C)c2c(=O)c3c(oc2c1)C(=O)N(CCCOC(C)C)C3c1ccccc1F (stereo not drawn),–,inactive: -2.68%
CC1CCCC(NC(=O)CSC2CCCCC2)C1C (stereo not drawn),"inconclusive: 22.4 µM [inhibitor, partial curve]",–
COc1cc(C2CC(=O)c3c([nH]c(C(=O)OC4CCCC4)c3C)C2)cc(OC)c1OC (stereo not drawn),–,inactive: -11.4%

Structure (SMILES),Potency,"activity change, negative = displacement"
Cn1cccc1-c1cc(C(=O)N/N=C/c2ccccc2Cl)[nH]n1,–,inactive: -10.1%
CCS(=O)(=O)N1CCN(c2c(Cl)cccc2[N+](=O)[O-])CC1,"inconclusive: 39.8 µM [inhibitor, partial curve]",–
CCN(CC)CCNC(=O)c1ccc(NC(=O)c2cc(-c3ccco3)nc3ccccc23)cc1,–,inactive: -9.93%
C[C@@H](C(=O)NCCc1ccc(F)cc1)N1C(=O)N2CCc3c([nH]c4ccccc34)[C@@]2(C)C1=O,"inconclusive: 4.47 µM [inhibitor, full curve, poor fit]",–
Cc1ccc(C(=O)OCc2nc(N)nc(Nc3ccccc3C)n2)cc1,"inconclusive: 35.5 µM [inhibitor, partial curve]",–
O=C(Nc1ccc(Cl)c(Cl)c1)Nc1ccccc1O,"inconclusive: 28.2 µM [inhibitor, partial curve]",–
Cc1cc(C(=O)N2CCC(Cc3ccccc3)CC2)ccc1[N+](=O)[O-],"inconclusive: 50.1 µM [inhibitor, single point]",–
CC(=O)c1ccc(N2CCC(c3cc(-c4ccc(Cl)cc4Cl)n[nH]3)CC2)c([N+](=O)[O-])c1,"inconclusive: 20 µM [inhibitor, partial curve]",–
COc1ccc(OC)c(/C=N/NC(=O)CCCC(=O)Nc2cccc(Br)c2)c1,–,inactive: 54.5%
Cc1cc(O)c(Oc2cc(C)cc(O)c2O)c(O)c1,"inconclusive: 31.6 µM [inhibitor, partial curve]",–
CCNC(=S)NNC(=O)c1cc(-c2cccc(OC)c2)nc2ccccc12,"inconclusive: 22.4 µM [inhibitor, partial curve]",–
Cc1ccc2nc(-c3ccc(SCC(=O)Nc4ccc5c(c4)OCCO5)nc3)[nH]c2c1,–,inactive: -14.3%
O=C(Nc1cccc(F)c1)c1ccccc1,–,inactive: -4.37%
O=C(O)CC1SC(=O)N(CC(=O)c2ccccc2)C1=O (stereo not drawn),–,inactive: 6.27%
Nc1nc(Cl)nc2c1ncn2C1OC(CO)C(O)C1F (stereo not drawn),–,inactive: -1.98%
O=C(COC(=O)/C=C/c1ccc(C(F)(F)F)cc1)NC1CCCC1,"inconclusive: 22.4 µM [inhibitor, partial curve]",–
CCCC(=O)Nc1ccc(Cl)c(NC(=O)c2ccc(Br)o2)c1,"inconclusive: 20 µM [inhibitor, partial curve]",–
C/C(N)=C(/C#N)C(=O)CSc1nnnn1-c1ccc(C)cc1C,"inconclusive: 35.5 µM [inhibitor, single point]",–
CCOc1ccc(OCC)c(NC(=O)CN(C)S(=O)(=O)c2cccc3nsnc23)c1,"inconclusive: 11.2 µM [inhibitor, full curve, poor fit]",–
COc1cc(CO)ccc1OCC(=O)N1CCc2ccccc21,–,inactive: -19.9%
CC(=O)CCc1oc2ccc([N+](=O)[O-])cc2c1-c1ccc(C)o1,"inconclusive: 15.8 µM [inhibitor, partial curve, poor fit]",–
CC(C)c1ccc(NC(=O)N2CCN(c3ccc(Cl)c(Cl)c3)CC2)cc1,–,inactive: 33.8%
CCOC(=O)C(C)N1N=C(/C=C/c2ccc(OC)cc2)CCC1=O (stereo not drawn),"inconclusive: 35.5 µM [inhibitor, partial curve]",–

Structure (SMILES),Potency,"activity change, negative = displacement"
CCCCOC(=O)CSC1=C(C#N)C(c2ccccc2OCC)C(C#N)C(=O)N1 (stereo not drawn),–,inactive: -18.6%
Cc1cc(C(=O)OCC(=O)Nc2sc3c(c2C#N)CCC(C)C3)c2ccccc2n1 (stereo not drawn),–,inactive: -10.9%
Cc1ccc(N2CCN(C(=O)c3c(C)oc4ncnc(N5CCCCC5)c34)CC2)c(C)c1,–,inactive: 19.5%
CCOC(=O)c1cccc(NC(=O)CCc2nc(-c3ccccc3F)no2)c1,"inconclusive: 31.6 µM [inhibitor, partial curve]",–
CC(C)Cc1ccc(C(=O)NCCOc2ccccc2)o1,"inconclusive: 56.2 µM [inhibitor, single point]",–
CCN(CC)S(=O)(=O)c1cccc(-c2n[nH]c(=S)n2/N=C/c2ccc(Br)cc2)c1,"inconclusive: 50.1 µM [inhibitor, single point]",–
COc1ccc(-c2nc3scc(CCNS(=O)(=O)c4c(C)cc(C)cc4C)n3n2)cc1OC,"inconclusive: 0.794 µM [inhibitor, full curve, poor fit]",–
O=C1CCCN1c1ccc(S(=O)(=O)Oc2cccc(Cl)c2)cc1[N+](=O)[O-],"inconclusive: 25.1 µM [inhibitor, partial curve]",–
O=C(CSc1nnc(-c2cccc(S(=O)(=O)N3CCCCC3)c2)o1)c1ccc[nH]1,–,inactive: -20.2%
Cc1cccc(NC(=O)NCc2ccc3c(c2)OCO3)c1,"inconclusive: 44.7 µM [inhibitor, single point]",–
COc1ccc(C2=NS(=O)(=O)N(C)C(C(=O)Nc3ccc(OC(F)(F)F)cc3)=C2)cc1,"inconclusive: 14.1 µM [inhibitor, partial curve]",–
Nc1ccccc1Sc1ccc(C(F)(F)F)cc1[N+](=O)[O-],"inconclusive: 50.1 µM [inhibitor, single point]",–
Cc1cc(N2CCOCC2)ccc1/C=C1\NC(=O)N(CC(=O)Nc2ccc(F)cc2)C1=O,"inconclusive: 25.1 µM [inhibitor, partial curve]",–
O=C(OCc1nnc(-c2ccccc2)o1)c1cc(Cl)ccc1[N+](=O)[O-],"inconclusive: 28.2 µM [inhibitor, partial curve]",–
Cc1ccc(-n2nnnc2SCC(=O)Nc2cccc(NC(=O)c3ccco3)c2)cc1C,"inconclusive: 8.91 µM [inhibitor, partial curve]",–
CCCN(CC1CC1)C(=O)CSc1ncnc2sccc12,"inconclusive: 22.4 µM [inhibitor, partial curve]",–
Cc1cccc(NC(=O)c2cccc(C(F)(F)F)c2)c1,"inconclusive: 35.5 µM [inhibitor, single point]",–
Cc1cccc(-c2nnc(SCC(=O)Nc3nc4c(s3)CCCC4)n2C)c1,"inconclusive: 50.1 µM [inhibitor, single point]",–
COCCn1c(SCC(=O)Nc2ncc(Cl)c(C)c2Cl)nc2ccccc21,"inconclusive: 35.5 µM [inhibitor, partial curve]",–
COc1cc(OC)cc(C(=O)NCC(=O)OCC(=O)N2CCc3ccccc32)c1,"inconclusive: 15.8 µM [inhibitor, partial curve]",–
CC1=C(/C=C/C(C)=C/C=C/C(C)=C/C(=O)Nc2ccc(O)cc2)C(C)(C)CCC1,"inactive and inconclusive: 28.2 µM [inhibitor, partial curve] and inconclusive: 31.6 µM [inhibitor, partial curve]",–
COc1c(F)c(F)c(C(=O)Nc2ccccc2N2CCN(C(=O)C(C)C)CC2)c(F)c1F,"inconclusive: 10 µM [inhibitor, partial curve, poor fit]",–

# Source: PubChem BioAssay AID485281 (National Center for Advancing Translational Sciences (NCATS), 2010)
